From PubChem BioAssay AID686978 (National Center for Advancing Translational Sciences (NCATS), 2013)
The campaign covered roughly 420,000 compounds. About 64,000 (15%) were called active. The shares of active, inactive and inconclusive entries below differ from those in the screen. Calls come from the whole dose curve; as a rule, active = well fitted inhibition curve with a large enough effect; inconclusive = small, poorly fitted or top-dose-only effect; inactive = flat fitted curve, though single readings scatter. No potency is given beside an inconclusive call; the fits are too rough.

Test: qHTS for Inhibitors of human tyrosyl-DNA phosphodiesterase 1 (TDP1): qHTS in cells in absence of CPT; note: nearly all actives have a fitted effect of over 55% in size
Conditions: DT40 Tdp1-/- hTDP1 cells, no CPT, ATP luminescence, 48 h; series mostly up to 46.2 µM
Outline: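 A cellular qHTS used chicken DT40 cells lacking endogenous Tdp1 but carrying stably transfected human TDP1. Compounds were applied without camptothecin, and cell growth kinetics were judged by ATP-dependent luminescence after ≥48 hr.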
Potency is the fitted concentration of half-maximal effect; tags give direction and shape of the fitted curve.

| SMILES | Potency |
| --- | --- |
| O=C(CN1C(=O)C2C3C=CC(C3)C2C1=O)Nc1nc(SCc2ccc(Cl)cc2)n[nH]1 (stereo not drawn) | inconclusive [inhibitor, single point] |
| Cc1ccccc1S(=O)(=O)NCc1ccc(N2CCN(C)CC2)cc1 | inconclusive [inhibitor, partial curve, poor fit] |
| Cc1ccc(CNC(=O)CN2C(=O)C3(SCC(=O)N3c3ccc(F)c(F)c3)c3ccccc32)cc1 (stereo not drawn) | inconclusive [inhibitor, single point] |
| COc1cc(C(C(=O)NC2CCCCC2)N(C(=O)Cc2c[nH]c3ccccc23)c2ccccc2C)cc(OC)c1OC (stereo not drawn) | inactive |
| COc1ccc(-c2ccc(=O)n(CC(=O)Nc3cccc(O)c3)n2)cc1OC | inconclusive [inhibitor, partial curve, poor fit] |
| COCCC(=O)N1CCC(Oc2ccc(C(=O)NC3CCOC(C)(C)C3)cc2)CC1 (stereo not drawn) | inactive |
| Cc1ccc(NC(=O)CSc2nnc(-c3cccnc3)n2-c2ccc(C)cc2)cc1 | inconclusive [inhibitor, single point] |
| CCOc1cccc(CNc2ccc(O)cc2)c1OCc1ccc(Cl)cc1 | inconclusive [inhibitor, single point] |
| c1cncc(-c2nc3ccccn3c2Nc2ccc3c(c2)OCCO3)c1 | active: 11.6 µM |
| COc1ccc(-c2nc(Cn3c(SCc4ccccc4F)nc4cccnc43)c(C)o2)cc1 | inconclusive [inhibitor, single point] |
| CCCN(CCC)C(=O)C(c1ccccc1)C1(O)CCCCC1 (stereo not drawn) | inconclusive [inhibitor, partial curve] |
| CN(C)CCCNc1ncnc2c1c(-c1ccccc1)cn2-c1ccccc1 | inconclusive [inhibitor, single point] |
| O=C(N/C(=C/c1cccc([N+](=O)[O-])c1)C(=O)N1CCCCC1)c1cccs1 | inconclusive [inhibitor, single point] |
| CC(C)C[C@H](NC(=O)OC(C)(C)C)C(=O)N/N=C/C1=Cc2ccccc2OC1C (stereo partly drawn) | inconclusive [inhibitor, single point] |
| CN1C(=O)C(O)(C2COC(C)(C)CC2=O)c2cc(Br)ccc21 (stereo not drawn) | active: 4.61 µM |
| O=c1c2ccccc2nnn1CSc1ccccc1F | inconclusive [inhibitor, single point] |
| Cc1cc([N+](=O)[O-])nn1CC(=O)NCCCN1CCOCC1 | inactive |
| O=C(CN1C(=O)CCc2cc(S(=O)(=O)N3CCCCC3)ccc21)NCc1ccc(Cl)cc1 | active: 14.6 µM |
| CCc1cccc(C)c1NC(=O)c1ccoc1C | inconclusive [inhibitor, single point] |
| COC(=O)c1c(NC(=O)c2ccc(S(=O)(=O)N(C)C3CCCCC3)cc2)sc2c1CCN(C)C2 | inactive |
| CN(C)c1ccc(/C=C/C=C2/SC(=S)N(c3ccccc3)C2=O)cc1 | active: 8.2 µM |
| Cc1cc(C)c(C#N)c(OCC2CCCO2)n1 (stereo not drawn) | inactive |
| COCc1c(C(=O)Nc2ccc(C)c(S(=O)(=O)N3CCOCC3)c2)oc2ccccc12 | inconclusive [inhibitor, single point] |

| SMILES | Potency |
| --- | --- |
| CCOC(=O)C1=C[C@@H](C(C)(C)C)N(S(=O)(=O)c2ccc(OC)cc2)[C@H]1c1ccccc1 | inconclusive [inhibitor, single point] |
| O=C(CN1C(=O)CC(c2ccco2)Sc2ccccc21)Nc1ccc2c(c1)OCCO2 (stereo not drawn) | inconclusive [inhibitor, single point] |
| COc1ccc(OCC(=O)NCC(c2ccc(OC)cc2)N2CCOCC2)cc1 (stereo not drawn) | inconclusive [inhibitor, single point] |
| CC(=O)c1c(C)[nH]c(C(=O)NCc2ccccc2Cl)c1C | inconclusive [inhibitor, single point] |
| COc1cc(/C=C/C(=O)OCC(=O)N2CCC(C)CC2)ccc1O | inactive |
| Cc1ccc(C)c(N2CCN(C(=O)CS(=O)(=O)c3cccc4nsnc34)CC2)c1 | inconclusive [inhibitor, single point] |
| CC1(C)Cc2c(sc3[nH]c(=S)n(Cc4ccco4)c(=O)c23)CO1 | inconclusive [inhibitor, single point] |
| Cc1ccc2nc(-c3ccc(C)o3)c(NC3CCCC3)n2c1 | active: 12.6 µM |
| O=C(Nc1cc(Cl)cc2c1-c1ccc(Cl)cc1C2O)C(Cl)Cl (stereo not drawn) | inconclusive [inhibitor, single point] |
| Cc1ccc(OCC(=O)N2CCN(c3nnc(-c4ccc(C)cc4)c4ccccc34)CC2)cc1 | active: 23.1 µM |
| CCc1nnc(NC(=O)CCN(c2ccc(C)cc2)S(=O)(=O)c2ccccc2)s1 | inconclusive [inhibitor, single point] |
| CS(=O)(=O)N(CC(O)CON=C1c2ccccc2-c2ccccc21)c1ccc(F)cc1 (stereo not drawn) | inconclusive [inhibitor, partial curve] |
| Cc1ccccc1NC(=O)CSc1nc2scc(C)c2c(=O)[nH]1 | inconclusive [inhibitor, partial curve] |
| COc1ccccc1NC(=O)C1CCCCN1S(=O)(=O)c1ccc(F)cc1 (stereo not drawn) | inconclusive [inhibitor, single point] |
| COc1ccc(NC(C)=[N+](C)CCNS(=O)(=O)c2ccc(Cl)cc2)cc1 | inactive |
| Cc1cc(C)cc(Oc2cc(NC(=O)c3cn(C)nc3C)cc([N+](=O)[O-])c2)c1 | active: 1.41 µM |
| COc1ccc(C(=O)Nc2ccc(NS(=O)(=O)c3ccccc3)cc2)cc1OC | inconclusive [inhibitor, single point] |
| Cc1ccccc1CN1CCNC(=O)C1CC(=O)NC1CCCCCCC1 (stereo not drawn) | inactive |
| Cc1cc(C(=O)N2CCC2(C)C(=O)NCCC#N)nn1C (stereo not drawn) | inactive |
| CCn1c(=O)n(CC)c2cc(N3CCCC3)c(NC(=O)c3ccc(OC)c(Br)c3)cc21 | active: 11.6 µM |
| Cc1ccc(S(=O)(=O)N(CCO)c2cc3c(s2)CCCC3)cc1 | inconclusive [inhibitor, single point] |
| Cc1cc(NC(=O)C(C)(C)C)cc(-c2nc3ncccc3o2)c1O | inconclusive [inhibitor, single point] |
| Cc1cc(NC(=O)c2cnc3c(-c4ccccc4)c(C)nn3c2C)ccc1Br | inconclusive [inhibitor, single point] |

| SMILES | Potency |
| --- | --- |
| O=C(CC1(O)C(=O)N(Cc2ccc3c(c2)OCO3)c2ccccc21)c1ccccc1 (stereo not drawn) | active: 5.8 µM |
| O=C(Cn1c(-c2cccs2)cc2cc(F)ccc21)NCCCN1CCN(c2ccc(F)cc2)CC1 | inconclusive [inhibitor, single point] |
| CCn1c(SCC(=O)N2CCOCC2)nc2c(c1=O)SC(C)C2 (stereo not drawn) | inconclusive [inhibitor, partial curve, poor fit] |
| Cc1cc(C)cc(C(=O)NCC(=O)N2CCC(C(N)=O)CC2)c1 | inactive |
| CCOc1ccc(S(=O)(=O)NCCC(=O)OC(C)C(=O)N2CCc3ccccc32)cc1 (stereo not drawn) | inconclusive [inhibitor, partial curve] |
| CCCCn1c(-c2cccc(C)c2)nc2cc3[nH]c(=O)c(C(C)C)nc3cc21 | inconclusive [inhibitor, single point] |
| Cc1ccc(-n2nc(C)cc2Nc2ncc(Cl)cc2Cl)cc1 | inconclusive [inhibitor, single point] |
| CCn1c(SCC(=O)c2ccccc2)nnc1-c1cccc(Cl)c1 | inconclusive [inhibitor, single point] |
| COc1ccc(C)cc1NC(=O)NNC(=O)C1CCC(C(C)(C)C)CC1 (stereo not drawn) | inconclusive [inhibitor, single point] |
| COc1ccccc1CNCc1ccc2c(c1)OCO2 | inconclusive [inhibitor, single point] |
| COCCn1c(/C=C/c2ccccc2)nc2ccccc21 | inconclusive [inhibitor, single point] |
| CC1Cc2ccccc2N1C(=O)c1cc2sccc2n1Cc1ccc(F)cc1 (stereo not drawn) | active: 16.4 µM |
| C=CCNC(=O)c1ccc2nc(-c3ccccc3)c(-c3ccccc3)nc2c1 | inconclusive [inhibitor, single point] |
| O=C(NCCNc1ccnc2cc(Cl)ccc12)c1ccccc1F | active: 4.11 µM |
| Cc1cccc(-n2c(C)cc(/C=N\NC(=O)c3ccco3)c2C)c1 | inconclusive [inhibitor, single point] |
| Cc1cccc(C)c1NC(=O)CN1C(=O)C2CC=CCC2C1=O (stereo not drawn) | inconclusive [inhibitor, single point] |
| O=C(/C(=C/O)N=Nc1ccccc1)c1ccc(Cl)cc1 | inconclusive [inhibitor, single point] |
| N#Cc1ccc(C(=O)CSc2nnc(-c3ccc(C(F)(F)F)cn3)s2)cc1 | inconclusive [inhibitor, single point] |
| CCOc1ccc(NS(=O)(=O)c2cc3c4c(c2)CCN4C(=O)CC3)cc1 | inconclusive [inhibitor, single point] |
| COc1cccc(CNCCSc2nnnn2-c2ccccc2)c1OC | active: 23.1 µM |
| COc1ccc(-c2c(C)c3ccc(O)c(CN4CCCC4)c3oc2=O)cc1 | active: 14.6 µM |
| CCc1ccc(C(=O)NNc2ccc(C)c(Cl)c2)cc1 | inconclusive [inhibitor, single point] |
